We go through 4 molecules from patent US11433140B2, “Specific antibody drug conjugates (ADCs) having KSP inhibitors” (Bayer Pharma Aktiengesellschaft, priority 2016, dated 2022).

One experiment concerns REC-1. As to the kind of experiment: Growth inhibition of experimental tumours in the mouse, REC-1 xenograft. It counts as in vivo, female NMRI-nude mice. The settings on record: REC1, 10 mg/kg i.v. The method, then:
(§1) Human tumour cells which express the antigen for the antibody-drug conjugate are inoculated subcutaneously into the flank of immunosuppressed mice, for example NMRi nude or SCID mice. 1-10 million cells are detached from the cell culture, centrifuged and resuspended in medium or medium/matrigel. The cell suspension is injected under the skin of the mouse.
(§2) Within a few days, a tumour grows. Treatment is commenced after the tumour is established, at a tumour size of approximately 40 mm^2. To examine the effect on larger tumours, treatment may be initiated only at a tumour size of 50-100 mm^2.
(§3) Treatment with the ADCs is carried out via the intravenous (i.v.) route into the tail vein of the mouse. The ADC is administered in a volume of 5 ml/kg.
(§4) The treatment protocol depends on the pharmacokinetics of the antibody conjugate. Treatment was effected three times in succession every seventh day as the standard. For a quick assessment, a protocol with a single treatment may also be suitable. However, the treatment may also be continued, or a second cycle of further treatment days may follow at a later time.
(§5) As standard, 8 animals are used per treatment group. […]
(§6) During the experiment, the tumour area is measured regularly in two dimensions (length/width) using a caliper. The tumour area is determined as length×width. […]

The test system of a further experiment is target-positive cells. Nature of the experiment: Co-localization assay of the anti-CD123 antibodies with lysosome-specific label (FACS/image analysis). The class given is cell-based. The settings on record: CypHer5E-labelled antibody 20 μg/ml, CytoPainter LysoGreen lysosome stain. Here is the method:
Owing to the linker, the active metabolite of the antibody-drug conjugate is generated by lysosomal degradation. Accordingly, intracellular trafficking after internalization has taken place is of essential importance. Studies about the co-localization of the antibody using labels specific for the lysosomal organelle (e.g. surface molecules or small GTPases) allow the selection of antibodies having the desired profile. To this end, target-positive cells (5×10^4/well) in a total volume of 100 μl were sown into a 96-MTP (Greiner bio-one, CELLSTAR, 650 180, U-bottom). Following addition of the CypHer5E-labelled anti-target antibody (final concentration 20 μg/ml), the batches (duplicates per point in time) were incubated at 37° C. for 30 min, 2 h and 6 h in an incubator (5% CO2). 30 min prior to the end of the chosen incubation time, the lysosome-specific label was added to the batches to be examined. The lysosomes were stained with CytoPainter LysoGreen indicator reagent (final concentration 1:2000; abcam, ab176826). After incubation, 200 μl of ice-cold FACS buffer (DULBECCO'S PBS, Sigma-Aldrich, No. D8537+3% FBS heat inactivated FBS, Gibco, No. 10500-064) were added and the cell suspension was centrifuged at 400×g and 4° C. for 5 min. […] Co-localization was evaluated using a special software (co-localization software IDEAS Application v6.1).

A further experiment relates to MOLM-13. As to the kind of experiment: Growth inhibition of experimental tumours in the mouse, MOLM-13 xenograft. The settings on record: MOLM-13, 5 mg/kg i.v., Q7d × 2, day 14. It counts as in vivo, female NMRI-nude mice. Here is the method:
as §1, §2, §3, §4, §5, §6

The test system of another experiment is MV-4-11. As to the kind of experiment: Growth inhibition of experimental tumours in the mouse, MV-4-11 xenograft. It counts as in vivo, female NMRI-nude mice. The settings on record: MV-4-11, 5 mg/kg i.v., Q7d × 2, day 20. Here is the method:
as §1, §2, §3, §4, §5, §6

B1: R1x-9024: reference ADC R1 (from intermediate F104) with anti-CXCR5 antibody TPP-9024, DAR 3.7 (conjugate)
heavy: EVQLVESGGGLVQPGKSLKLSCSASGFTFSTSGMHWFRQAPGKGLDWVAYISSSSGFVYADAVKGRFTISRDNAQNTLYLQLNSLKSEDTAIYYCARSEAAFWGQGTLVTVSS[letters of human IgG1 constant region not shown]
light: DIVLTQAPRSVSVTPGESASISCRSNKSRLSRMGITPLNWYLQKPGKSPQLLIYRMSNLASGVPDRFSGSGSETDFTLKISKVETEDVGVYYCAQFLEYPPTFGSGTKLEIKRTVAAPSVFIFPPSDEQLKSGTASVVCLLNNFYPREAKVQWKVDNALQSGNSQESVTEQDSKDSTYSLSSTLTLSKADYEKHKVYACEVTHQGLSSPVTKSFNRGEC
In the experiment on REC-1 (Q7d × 3, day 23), B1 showed a T/C area of 0.48.

B2: TPP-8988: humanized anti-CD123 antibody, heavy chain SEQ ID NO: 19, light chain SEQ ID NO: 20 (antibody)
heavy: EVQLLESGGGLVQPGGSLRLSCAVSDYSITSGYYWNWIRQAPGKKLEWMGYISYDGSNNYNPSLKNGRITISRDTSKNTFYLQMNSLRAEDTAVYYCARGEGFYFDSWGQGTLVTVSS[letters of human IgG1 constant region not shown]
light: EIVLTQSPGTLSLSPGERATLSCKSSQSLFFGSTQKNYLAWYQQKPGQAPRLLIYWASTRESGIPDRFSGSGSGTDFTLTISRLEPEDFAVYYCQQYYNYPWTFGQGTKLEIKRTVAAPSVFIFPPSDEQLKSGTASVVCLLNNFYPREAKVQWKVDNALQSGNSQESVTEQDSKDSTYSLSSTLTLSKADYEKHKVYACEVTHQGLSSPVTKSFNRGEC
modifications: Antibody Sequence
For B2, the “Co-localization [%]” value in the experiment with target-positive cells stood at 41%.

B3: 1c-8988: ADC of Examples 1 (from Intermediate F325) with anti-CD123 antibody TPP-8988, DAR 3.5 (conjugate)
heavy: B2 heavy
light: B2 light
Turning to B3, the T/C area with MOLM-13 is listed as 0.33; in the experiment on MV-4-11, 0.16.

B4: 1x-9574: ADC of Examples 1 (from Intermediate F325) with anti-CXCR5 antibody TPP-9574, DAR 4.1 (conjugate)
heavy: EVQLVESGGGLIQPGGSLRLSCAASGFTFSTSGMHWFRQAPGKGLEWVAYISSSSGFVYAD[letters of about 20 residues not shown]MNSLRAEDTAVYYCARSEAAFWGQGTLVTVSS[letters of human IgG1 constant region not shown]
light: DIVMTQSPLSLPVTPGEPASISCRSQKSRLSRMGITPLNWYLQKPGQSPQLLIYRMSNLASGVPDRFSGSGSGTDFTLKISRVEAEDVGVYYCAQFLEYPPTFGQGTKLEIKRTVAAPSVFIFPPSDEQLKSGTASVVCLLNNFYPREAKVQWKVDNALQSGNSQESVTEQDSKDSTYSLSSTLTLSKADYEKHKVYACEVTHQGLSSPVTKSFNRGEC
As for B4, the T/C area with REC-1 (Q7d × 3, day 24) was 0.20.
